# Measurements taken from the supplement of paper PMC8728848.
# The list shows a part of the results.
# B1: PX9961J-bvu-499-24-499 (Bacteroides vulgatus) (protein)
# chain: LNTDPSTAVPSDDAIKNIDDAQVALNGIYRLASAHSYYGDNYLYYADCRGEDVQARINKGAGRRVSPYYFFDVTADDNFNITLVWNQPYKVIHQANSLIEKLDAGNAGNARPEEVARIKSEALAMRGLALFDLTRLFGMPYTLDNGASLGVPIEIQTTLEDHAPERNTVAQCYEQVLKDLNDALGGLTKEKHDAYMNYWSVKALLSRVYLYMNDNENALKCAEEVINDNGGIYRLFTHDEYPSVWGKDFNSESLFEFYFTMSEPSGGSGGEGAPMVYADNVKDWNNLILTKAYLDLLNEDPEDVRHVFPHLPENAVADTLPVAAKGQPKYLIKYPGKSGSVTDAVSTVNPQDNDLCILRLSEVYLNAAEAAFKIGNTEKALTYLNAIVTRANPAKSVTSADLSLERILKERRKELVGEGHAFFDYMRNGKSVDRSGGWHLTMPEDARVIAPSDPRVALPIPQTEIDANPNIVQNPR
# Assays:
# Test in all cases: glycan array binding signal (z-score within array); higher = stronger binding
# Details in all cases: glycan notation: IUPAC condensed, linker removed
# Kdn(a2-3)Gal(b1-4)Glc = biological target: Kdn(a2-3)Gal(b1-4)Glc
# Outline: (§1)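 The binding signal is a Z-score computed within each array. Data were drawn from 3228 arrays in the Consortium for Functional Glycomics database, restricted to those with a known protein sequence. Scores were averaged over arrays of the same protein sequence at different concentrations or buffers, and over linkers, and negative values can be taken as non-binding.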
# Kdn(a2-3)Gal(b1-4)GlcNAc = biological target: Kdn(a2-3)Gal(b1-4)GlcNAc
# Outline: as §1
# [1] = biological target: Kdn(a2-3)Gal(b1-4)[Fuc(a1-3)]GlcNAc
# Outline: as §1
# Kdn(a2-6)Gal(b1-4)GlcNAc = biological target: Kdn(a2-6)Gal(b1-4)GlcNAc
# Outline: as §1
# [2] = biological target: Man(a1-2)Man(a1-2)Man(a1-3)Man
# Outline: as §1
# [3] = biological target: Man(a1-2)Man(a1-2)Man(a1-6)[Man(a1-3)]Man
# Outline: as §1
# Man(a1-2)Man(a1-3)Man = biological target: Man(a1-2)Man(a1-3)Man
# Outline: as §1
# [4] = biological target: Man(a1-2)Man(a1-3)[Man(a1-2)Man(a1-6)]Man
# Outline: as §1
# [5] = biological target: Man(a1-2)Man(a1-3)[Man(a1-2)Man(a1-6)]Man(a1-6)[Man(a1-2)Man(a1-2)Man(a1-3)]Man
# Outline: as §1
# [6] = biological target: Man(a1-2)Man(a1-3)[Man(a1-2)Man(a1-6)]Man(a1-6)[Man(a1-2)Man(a1-2)Man(a1-3)]Man(b1-4)GlcNAc(b1-4)GlcNAc
# Outline: as §1
# [7] = biological target: Man(a1-2)Man(a1-3)[Man(a1-6)]Man(a1-6)[Man(a1-2)Man(a1-3)]Man(b1-4)GlcNAc(b1-4)GlcNAc
# Outline: as §1
# [8] = biological target: Man(a1-2)Man(a1-6)[Man(a1-3)]Man(a1-6)[Man(a1-2)Man(a1-2)Man(a1-3)]Man
# Outline: as §1
# [9] = biological target: Man(a1-2)Man(a1-6)[Man(a1-3)]Man(a1-6)[Man(a1-2)Man(a1-2)Man(a1-3)]Man(b1-4)GlcNAc(b1-4)GlcNAc
# Outline: as §1
# Man(a1-3)[Man(a1-6)]Man = biological target: Man(a1-3)[Man(a1-6)]Man
# Outline: as §1
# [10] = biological target: Man(a1-3)[Man(a1-6)]Man(a1-6)[Man(a1-2)Man(a1-3)]Man(b1-4)GlcNAc(b1-4)GlcNAc
# Outline: as §1
# [11] = biological target: Man(a1-3)[Man(a1-6)]Man(a1-6)[Man(a1-3)]Man
# Outline: as §1
# [12] = biological target: Man(a1-3)[Man(a1-6)]Man(a1-6)[Man(a1-3)]Man(b1-4)GlcNAc(b1-4)GlcNAc
# Outline: as §1
# [13] = biological target: Man(a1-3)[Man(a1-6)]Man(b1-4)GlcNAc(b1-4)GlcNAc
# Outline: as §1
# [14] = biological target: Man(a1-3)[Man(a1-6)]Man(b1-4)GlcNAc(b1-4)[Fuc(a1-6)]GlcNAc
# Outline: as §1
# Man(a1-6)Man = biological target: Man(a1-6)Man
# Outline: as §1
# Man(b1-4)GlcNAc = biological target: Man(b1-4)GlcNAc
# Outline: as §1
# MurNAc(b1-4)GlcNAc = biological target: MurNAc(b1-4)GlcNAc
# Outline: as §1
# Neu5Ac(a2-3)Gal = biological target: Neu5Ac(a2-3)Gal
# Outline: as §1
# [15] = biological target: Neu5Ac(a2-3)Gal(b1-3)GalNAc
# Outline: as §1
# [16] = biological target: Neu5Ac(a2-3)Gal(b1-3)GalNAc(b1-3)Gal(a1-4)Gal(b1-4)Glc
# Outline: as §1
# [17] = biological target: Neu5Ac(a2-3)Gal(b1-3)GalNAc(b1-4)[Neu5Ac(a2-3)]Gal(b1-4)Glc
# Outline: as §1
# [18] = biological target: Neu5Ac(a2-3)Gal(b1-3)GalNAc(b1-4)[Neu5Ac(a2-8)Neu5Ac(a2-3)]Gal(b1-4)Glc
# Outline: as §1
# [19] = biological target: Neu5Ac(a2-3)Gal(b1-3)GalNAc6S
# Outline: as §1
# [20] = biological target: Neu5Ac(a2-3)Gal(b1-3)GlcNAc
# Outline: as §1
# [21] = biological target: Neu5Ac(a2-3)Gal(b1-3)GlcNAc(b1-2)Man
# Outline: as §1
# [22] = biological target: Neu5Ac(a2-3)Gal(b1-3)GlcNAc(b1-2)Man(a1-3)[GlcNAc(b1-4)][Neu5Ac(a2-3)Gal(b1-3)GlcNAc(b1-2)Man(a1-6)]Man(b1-4)GlcNAc(b1-4)GlcNAc
# Outline: as §1
# [23] = biological target: Neu5Ac(a2-3)Gal(b1-3)GlcNAc(b1-2)Man(a1-3)[Neu5Ac(a2-3)Gal(b1-3)GlcNAc(b1-2)Man(a1-6)]Man(b1-4)GlcNAc(b1-4)GlcNAc
# Outline: as §1
# [24] = biological target: Neu5Ac(a2-3)Gal(b1-3)GlcNAc(b1-3)Gal(b1-3)GlcNAc
# Outline: as §1
# [25] = biological target: Neu5Ac(a2-3)Gal(b1-3)GlcNAc(b1-3)Gal(b1-4)GlcNAc
# Outline: as §1
# [26] = biological target: Neu5Ac(a2-3)Gal(b1-3)GlcNAc(b1-3)GalNAc
# Outline: as §1
# [27] = biological target: Neu5Ac(a2-3)Gal(b1-3)GlcNAc(b1-4)Gal(b1-4)Glc
# Outline: as §1
# [28] = biological target: Neu5Ac(a2-3)Gal(b1-3)GlcNAc(b1-6)GalNAc
# Outline: as §1
# [29] = biological target: Neu5Ac(a2-3)Gal(b1-3)GlcNAc6S
# Outline: as §1
binder,measurement,setting,value
B1,glycan array binding signal (z-score),Kdn(a2-3)Gal(b1-4)Glc,-0.405
same,glycan array binding signal (z-score),Kdn(a2-3)Gal(b1-4)GlcNAc,-0.232
same,glycan array binding signal (z-score),[1],-0.119
same,glycan array binding signal (z-score),Kdn(a2-6)Gal(b1-4)GlcNAc,0.625
same,glycan array binding signal (z-score),[2],-0.579
same,glycan array binding signal (z-score),[3],0.386
same,glycan array binding signal (z-score),Man(a1-2)Man(a1-3)Man,-0.194
same,glycan array binding signal (z-score),[4],-0.206
same,glycan array binding signal (z-score),[5],-0.302
same,glycan array binding signal (z-score),[6],0.022
same,glycan array binding signal (z-score),[7],-1.02
same,glycan array binding signal (z-score),[8],-0.372
same,glycan array binding signal (z-score),[9],-0.359
same,glycan array binding signal (z-score),Man(a1-3)[Man(a1-6)]Man,-0.77
same,glycan array binding signal (z-score),[10],-0.012
same,glycan array binding signal (z-score),[11],0.83
same,glycan array binding signal (z-score),[12],-0.181
same,glycan array binding signal (z-score),[13],-0.104
same,glycan array binding signal (z-score),[14],-0.418
same,glycan array binding signal (z-score),Man(a1-6)Man,-0.426
same,glycan array binding signal (z-score),Man(b1-4)GlcNAc,0.396
same,glycan array binding signal (z-score),MurNAc(b1-4)GlcNAc,-0.701
same,glycan array binding signal (z-score),Neu5Ac(a2-3)Gal,-0.446
same,glycan array binding signal (z-score),[15],0.251
same,glycan array binding signal (z-score),[16],0.775
same,glycan array binding signal (z-score),[17],0.61
same,glycan array binding signal (z-score),[18],0.353
same,glycan array binding signal (z-score),[19],-0.388
same,glycan array binding signal (z-score),[20],0.121
same,glycan array binding signal (z-score),[21],-0.134
same,glycan array binding signal (z-score),[22],-0.662
same,glycan array binding signal (z-score),[23],-0.442
same,glycan array binding signal (z-score),[24],-0.535
same,glycan array binding signal (z-score),[25],0.428
same,glycan array binding signal (z-score),[26],0.006
same,glycan array binding signal (z-score),[27],-0.617
same,glycan array binding signal (z-score),[28],-0.357
same,glycan array binding signal (z-score),[29],-0.785
